This is an account of results in ChEMBL document CHEMBL4888484, “Replenishing the malaria drug discovery pipeline: Screening and hit evaluation of the MMV Hit Generation Library 1 (HGL1) against asexual blood stage Plasmodium falciparum ,using a nano luciferase reporter read-out” (2022).

The whole screen tested about 150,000 compounds, of which about 540 (0.36%) showed an effect of 50% or more. Some of the results follow.

For the experiment, the system named is Plasmodium falciparum. Put plainly: Primary screen in NF54 nanoGlo assay, in single point, at 2uM, 72h; a lower Z score goes with more inhibition. In kind it is functional, Erythrocyte. The settings on record: timepoint 72 hour.
Broadly, the % Inhibition is the relative decrease from the control value, in per cent. On to `Cc1cc(C(=O)N2CCC[C@H](CCC(=O)O)C2)c(C)n1C(C)C`, for which the “% Inhibition” value is given as -11% and the Z score turned out to be 1.96.
Taken in the same sequence, the figures for `CN1CCN(C(=O)c2csc3c2CCCC3)CC1` were -7% and 0.95.
In the case of `CC(C)(C)OC(=O)N1CCNC(=O)C1(C)C`, the “% Inhibition” value worked out at 2% and the Z score is reported as -0.31.
For `C[C@H](O)CCN(C)c1ncccc1C(F)(F)F`, in that order: -12% and 1.87.
For `COc1ccc(-c2nnc(NCCc3ccccc3)[nH]c2=O)cc1`, in that order: -24% and 2.87.
Consider `O=C(O)[C@H]1CCCN1Cc1cc(Cl)c2c(c1)OCCO2`, for which the “% Inhibition” value is listed as -12% and the Z score was found to be 1.58.
Taken in the same sequence, the figures for `CCCc1nnc(NC(=O)CN2CC=C(n3c(=O)[nH]c4ccccc43)CC2)s1` were -16% and 1.91.
Taken in the same sequence, the figures for `CCc1oc(C(=O)N2CCC[C@H](CN3CCOCC3)C2)cc1C` were -11% and 1.25.
For `CCOCCCNC(=O)c1nc(Cn2nc(-c3ccc(C)cc3)ccc2=O)no1`, in that order: -8% and 1.
`COc1ccc(COC(=O)c2c(C)noc2C(C)C)cn1`: the “% Inhibition” value was -6% and the Z score turned out to be 0.82.
For `Cc1c(NC(=O)CNC(=O)COc2ccccc2)c(=O)n(-c2ccccc2)n1C`, in that order: 3% and -0.36.
For `Cc1cc2nc(C)c(=O)n(Cc3ccc(C(=O)NCCCN4CCCC[C@@H]4C)cc3)c2cc1C`, in that order: 30% and -4.3.
Turning to `Cc1nn(CC(F)(F)F)c(C)c1C(C)C(=O)NC1CCc2cn[nH]c2C1` (stereo not given), the “% Inhibition” value was -3% and the Z score is given as 0.67.
For `Cc1ccc(C)c(S(=O)(=O)NCC2CCN(S(=O)(=O)N(C)C)CC2)c1`, in that order: -10% and 1.1.
For `Cc1ccccc1C(=O)NCCCN(C)C`, in that order: 8% and -0.99.
For `C1=CC[C@@H](c2nc(C3CC3)nn2C2CCCCC2)CC1`, in that order: -6% and 1.14.
Consider `Cc1occc1C(=O)NC[C@H]1Cc2ccccc2O1`, for which the “% Inhibition” value is listed as -11% and the Z score is on record as 1.71.
Taken in the same sequence, the figures for `O=C(c1ccc(Cl)cn1)N1CCC(S(=O)(=O)N2CCCC2)CC1` were -11% and 1.78.
For `Cc1nc(N)nc(N2CCN(c3ccncc3)CC2)c1C`, in that order: 1% and -0.17.
For the compound `CC[C@H](NC(=O)N1CC(C)(C)OC(C)(C)C1)c1nccs1`, the “% Inhibition” value is on record as -16% and the Z score is recorded as 1.63.
Taken in the same sequence, the figures for `CCc1nn(-c2ccccc2)c2c1CN(C(=O)Nc1ccc(C)c(F)c1)[C@H](c1cccc(OC)c1)c1cccn1-2` were -15% and 2.8.
For `Cc1cc(Br)oc1C(=O)N1CCC(C)(C)C1`, in that order: -4% and 0.34.
With `CC[C@H]1OCC[C@@H]1C(=O)N1CCN(C(=O)c2cc(C)[nH]n2)C[C@@H]1C`, the “% Inhibition” value is -3% and the Z score is recorded as 0.52.
For `CCc1cc(NC(=O)[C@H]2CC23CCOCC3)ccc1C`, in that order: -15% and 1.9.
For `CN(Cc1ncc(-c2ccccc2)o1)c1ccccc1`, in that order: -6% and 0.5.
Taken in the same sequence, the figures for `Cc1ccsc1CN(CCN1CCOCC1)[C@H]1CCCNC1` were -5% and 0.7.
On to `Cc1c(CN2CCC3(CCCC3)C2)cc(C#N)n1C`, for which the “% Inhibition” value is recorded as -17% and the Z score is recorded as 1.77.
For `CCc1n[nH]cc1C(=O)N1CCN(Cc2cc(C)cc(C)c2)C(=O)C1`, in that order: -15% and 1.42.
Taken in the same sequence, the figures for `Cc1ccoc1C(=O)NC1CCN(C(=O)c2ncccc2Cl)CC1` were -8% and 0.82.
For `CCc1csc([C@H]2CCCN(c3ncnc(N)c3Cl)C2)n1`, in that order: -7% and 1.01.
As for `CCCCOCC(=O)N[C@H]1CCCN(CCN2CCOCC2)C1=O`, the “% Inhibition” value is listed as -12% and the Z score amounted to 1.1.
For `O=C(NC1CCCCC1)c1ccc(Oc2ccnc(-c3cccc(F)c3)n2)cc1`, in that order: -6% and 0.76.
`COc1cc(OC)c(OC)cc1NC(=O)N1CC(C)(C)C1(C)C`: the “% Inhibition” value was -4% and the Z score was 0.4.
Taken in the same sequence, the figures for `Fc1ccc(-c2cn3c(-c4ccccc4)c(-c4ccccc4)nc3[nH]2)cc1` were -1% and 0.14.
For `O=C(NC1CCCCC1)C1Cc2cc(C(F)(F)F)ccc2N2CCN(c3ccccn3)CC12` (stereo not given), in that order: -10% and 1.62.
For `CCOCCCC(=O)Nc1nc(-c2cc(C)oc2C)cs1`, in that order: -8% and 1.28.
As for `CC1CN(C(=O)CCNC(=O)Nc2cccnc2)CC(C)O1` (stereo not given), the “% Inhibition” value is recorded as -2% and the Z score is given as 0.21.
For `CCN1CCN(C(=O)c2cccc(-c3ccnc(OC)c3C#N)c2)CC1=O`, in that order: -1% and 0.21.
For `COc1cc(C(=O)Nc2c(-c3cccc4ccccc34)c(=O)c3ccccc3n2C)cc(OC)c1OC`, in that order: -6% and 0.86.
For `Cc1ccc(CN(Cc2ccccn2)C(=O)[C@@H]2CN(C)c3ccccc3O2)s1`, in that order: 31% and -2.91.
In the case of `CCNC(=O)CNC(=O)c1ccc(CC)o1`, the “% Inhibition” value is reported as -6% and the Z score amounted to 1.24.
As for `COc1cc(NS(=O)(=O)c2cc(C(=O)N3CCC3)ccc2OC)cc(OC)c1`, the “% Inhibition” value is given as -8% and the Z score stood at 1.01.
Turning to `Cc1cc(CNc2cccc(S(=O)(=O)NC3CC3)c2C)ccc1F`, the “% Inhibition” value was determined as 3% and the Z score is recorded as -0.44.
For `Cc1cc(N2CCC(CNC(=O)c3c(Cl)cnn3C)CC2)c2ccccc2n1`, in that order: 10% and -1.32.
For `O=C1[C@@H]2C[C@H](O)CCN2C(=O)CN1Cc1cccc2ccccc12`, in that order: 3% and -0.31.
With `CC[C@@H](Cc1cccc(Br)c1)C(=O)N(C)C`, the “% Inhibition” value was -1% and the Z score worked out at 0.12.
Taken in the same sequence, the figures for `O=C(O)c1ccc(CN2CCC[C@H]2c2nccc(C(F)(F)F)n2)s1` were -33% and 3.58.
For `O=C1C[C@H](COCc2ccccc2)c2c(-c3cccnc3)n[nH]c2N1`, in that order: -8% and 1.58.
For `O=C1NCCCCC1NC[C@@H](O)c1ccc(C(F)(F)F)cc1` (stereo not given in full), in that order: -14% and 1.5.
With `O=C(NCCNS(=O)(=O)Cc1ccccc1)Nc1ccc(N2CCCC2=O)cc1`, the “% Inhibition” value is given as 1% and the Z score was -0.19.
Taken in the same sequence, the figures for `CC(C)OC(=O)N1CCC(NC(=O)N(C)C)CC1` were 14% and -1.67.
For `Cc1nn(-c2ccccc2)c(Oc2ccc(Cl)cc2)c1CN(CC1CC1)C(=O)c1ccco1`, in that order: 2% and -0.3.
For `N#Cc1cccc(OCCn2cc(Cl)c(=O)[nH]c2=O)c1`, in that order: -17% and 2.47.
For the compound `Cc1cc(N2CCNC2=O)ccc1NC(=O)c1cscn1`, the “% Inhibition” value is -16% and the Z score is reported as 2.39.
For `COC[C@H](C)NC(=O)c1ccc2c(c1)CN(CCN1CCCCC1)C2=O`, in that order: -9% and 1.94.
For `CC1Oc2ccccc2C1NC(=O)NC1CCCC(F)(F)C1` (stereo not given), in that order: 0% and 0.01.
Taken in the same sequence, the figures for `O=C(c1cnc2cc(-c3ccccc3)nn2c1)c1cc(Cl)ccc1O` were 1% and -0.06.
In the case of `CC(C)CNC(=O)c1cc(C(C)C)n2nc(-c3ccccn3)cc2n1`, the “% Inhibition” value is recorded as 5% and the Z score is given as -0.68.
Taken in the same sequence, the figures for `Cc1cccc(-c2nc3cc(C)ccc3cc2CN2C[C@H](O)[C@@H](N(C)C)C2)c1` were -11% and 1.36.
For `CCc1nc2c(N(C)CCc3scnc3C)ncnc2o1`, in that order: -6% and 1.12.
`C[C@H]1CCCN1S(=O)(=O)N(C)c1ccc(O)cc1`: the “% Inhibition” value is reported as -3% and the Z score is 0.41.
On to `COc1cccc(CN2CC3(CCN(C(=O)[C@@H]4CCCO4)CC3)CC2=O)c1`, for which the “% Inhibition” value is listed as -13% and the Z score is reported as 1.74.
For `CCCOc1cccc(-c2nc(N(C)C)n(CC)n2)c1`, the “% Inhibition” value is -16% and the Z score turned out to be 2.1.
For `CN(CCC#N)C(=O)Nc1cccc2ccsc12`, in that order: -12% and 1.98.
Turning to `c1cc(-c2nc(-c3ccncc3)no2)cc(C2OCCO2)c1`, the “% Inhibition” value was determined as 30% and the Z score was -3.36.
For `CCCn1c(=O)c(N2CCN(C(=O)COc3ccc(C)c(C)c3)CC2)nc2ccccc21`, in that order: 3% and -0.45.
In the case of `COC(=O)c1cncnc1NCCc1ccc(C(F)(F)F)cn1`, the “% Inhibition” value was -15% and the Z score is listed as 3.06.
Taken in the same sequence, the figures for `COc1ccc(CNC(=O)[C@@H]2CC(=O)c3cc(F)ccc3O2)cc1` were -12% and 1.79.
Take `CC(C)c1noc2ncc(C(=O)N3CCN(C)[C@H](c4nc(C5CC5)no4)C3)cc12`: the “% Inhibition” value was 2% and the Z score is given as -0.27.
As to `Cc1cc(C)cc(N(C)Cc2cn(C)c(=O)n(C)c2=O)c1`, the “% Inhibition” value came to 4% and the Z score is recorded as -0.74.
On to `Cc1cc(C)c2[nH]c(C(=O)N(C)[C@H]3CCN(C)C3)c(C)c2c1`, for which the “% Inhibition” value is on record as 1% and the Z score is on record as -0.15.
Taken in the same sequence, the figures for `CC(C)(CC(=O)N1CCC2(CCO2)CC1)c1ccccc1` were 15% and -1.74.
Turning to `CCn1c(C2CCNCC2)nn(Cc2ccccc2C#N)c1=O`, the “% Inhibition” value stood at 2% and the Z score is -0.19.
As to `CN(Cc1ccccc1)C[C@H](NC(=O)OC(C)(C)C)C(=O)O`, the “% Inhibition” value is listed as -9% and the Z score was found to be 1.28.
For `O=C(N[C@H]1CCOC[C@@H]1O)c1cc(CO)ccn1`, in that order: -19% and 1.68.
Taken in the same sequence, the figures for `O=C(COc1ccccc1)N1CCCN(C(=O)COc2ccccc2)CC1` were 34% and -3.85.
For `Cc1nc(C(=O)N2CCS(=O)(=O)C(C)C2C)c2ccccn12` (stereo not given), in that order: -1% and 0.13.
In the case of `O=C1c2ccccc2N[C@H](c2ccc3c(c2)OCCO3)N1C1CCCC1`, the “% Inhibition” value is -1% and the Z score was determined as 0.15.
In the case of `C[C@@H](C(=O)N(CC(N)=O)Cc1ccccc1)c1cncnc1`, the “% Inhibition” value is -4% and the Z score was determined as 0.36.
Taken in the same sequence, the figures for `CCC1(CC)C(NC(=O)N[C@@H]2C=C[C@H](CO)C2)C(C)C1OC` (stereo not given in full) were -10% and 1.41.
Taken in the same sequence, the figures for `CCc1nnc(-c2coc(S(=O)(=O)N3CCN(c4ccc(C)cc4)CC3)c2)o1` were -6% and 0.76.
For `CCOCCC1(CN=C(N)N2CCCCC2)CCCC1`, in that order: 36% and -4.9.
Take `Cc1cc(C(F)(F)F)nn1CC(=O)N1CC[C@H](n2c(C)cnc2-c2ccncc2)C1`: the “% Inhibition” value is -19% and the Z score worked out at 2.36.
Taken in the same sequence, the figures for `C[C@@H](CCc1ncnn1Cc1ccccc1Cl)N1CCN(C)CC1` were -1% and 0.13.
As to `Cc1ccc(C)c(NC(=O)Cn2c(C)cc(-c3nnc(C4CCC4)o3)c2C)c1`, the “% Inhibition” value is -9% and the Z score stood at 1.81.
